From PubChem BioAssay AID1347071 (National Center for Advancing Translational Sciences (NCATS), 2019)
Out of some 410,000 compounds screened, about 260 (0.063%) were called active. The shares of active, inactive and inconclusive entries below differ from those in the screen. Calls follow the shape of the dose curve; as a rule, active = well fitted activation curve with a large enough effect; inconclusive = small, poorly fitted or top-dose-only effect; inactive = no such curve, though single readings can be large or run the other way. Potencies of inconclusive entries are left out as doubtful fits.

Assay: qHTS for compounds that reverse cellular toxicity of Amyloid beta (A-beta) peptide in yeast: Primary Screen; also: nearly all actives have a fitted effect of over 55% in size
Details: yeast expressing A-beta42, growth rescue, OD600, 48 h; growth rescue: at 46.1 µM (top of the series), 0% DMSO, 100% iron-clioquinol control
How it was run: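 Growth rescue measured by 600 nm absorbance after 48 h yeast culture at 30 C with compound. Values normalized between DMSO and an equimolar ferric chloride plus clioquinol control.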
Potency is read from the fitted curve at half-maximal effect; tags tell the direction and shape of the fitted curve.

Row | Structure (SMILES) | Potency | growth rescue
1 | CC(C)(C)NC(=O)C(CCc1ccccc1)n1c(=O)c(-c2cc3ccccc3[nH]2)nc2ccccc21 (stereo not drawn) | inconclusive [activator, partial curve] | 
2 | CCn1c(SCc2ccccc2Cl)nc2ccccc21 | inconclusive [activator, partial curve, poor fit] | 
3 | COc1ccc(-n2c3c(c(=O)[nH]c2=O)C(NC(=O)c2ccccc2Cl)(C(F)(F)F)C(=O)N3)cc1 (stereo not drawn) |  | inactive: -2.84%
4 | COc1ccc(C(=O)NC(=S)NNC(=O)COc2ccccc2)cc1 | inconclusive [activator, full curve, poor fit] | 
5 | CC(O)CSc1nc2c(c(=O)[nH]c(=O)n2C)n1Cc1ccccc1 (stereo not drawn) | inconclusive [activator, single point] | 
6 | Cc1cccc(NC(=S)NC(C)(C)CC(C)(C)C)c1 | inconclusive [activator, partial curve, poor fit] | 
7 | Clc1cccc(/C=N/Nc2ncnc3ccccc23)c1 | inconclusive [activator, full curve] | 
8 | Cc1ccc(O)c(NC(=O)Cc2ccc3ccccc3c2)c1 | inconclusive [activator, partial curve, poor fit] | 
9 | O=C(C(=O)N1CCC(c2ccccc2)CC1)c1ccc(F)c(F)c1 |  | inactive: 8.12%
10 | CC(=O)c1c(C)[nH]c(C(=O)CN(C)CC(=O)Nc2ccccc2Cl)c1C | inconclusive [activator, full curve] | 
11 | COc1cccc(-c2cc(C(=O)Nc3c(C)nn(Cc4ccccc4Cl)c3C)no2)c1 | inconclusive [activator, full curve] | 
12 | Cc1cccc(N2C(=O)N(CC(=O)C(C)(C)C)c3ccccc3S2(=O)=O)c1C | inconclusive [activator, partial curve, poor fit] | 
13 | CCNC(=S)N1CCC(C(=O)c2ccc(Cl)cc2)CC1 | inconclusive [activator, partial curve, poor fit] | 
14 | Cc1ccc(OCCCC(=O)NC(C)c2ccccc2)cc1 (stereo not drawn) | inconclusive [activator, single point] | 
15 | CC1=CC2=NC(=O)/C(=C\c3cccn3CCOc3ccccc3C)C(=N)N2O1 | inconclusive [activator, single point] | 
16 | CC(NC(=S)Nc1ccccc1C(F)(F)F)C1CC2CCC1C2 (stereo not drawn) | inconclusive [activator, partial curve] | 
17 | OC(c1ccccc1)(c1nc(-c2cccc(F)c2)cs1)C(F)(F)F (stereo not drawn) | inconclusive [activator, single point] | 
18 | CCc1ccc(Sc2cc(C(=O)NCc3ccccc3OC)c3ccccc3n2)cc1 |  | inactive: -3.01%
19 | O=C(Nc1ccc(Br)cc1)c1ccc(F)c(S(=O)(=O)NCc2cccs2)c1 | inconclusive [activator, partial curve] | 
20 | O=C(NCc1ccc(F)cc1)NC(=O)c1ccc(Cl)cc1 | inconclusive [activator, single point] | 
21 | CCOc1ccc(NC(=O)CSC2=Nc3ccccc3C3=NC(CCC(=O)NCc4ccccc4)C(=O)N23)cc1 (stereo not drawn) |  | inactive: -8.32%
22 | CC(=O)Nc1ccc(S(=O)(=O)N(CC(=O)O)Cc2ccccc2)cc1 |  | inactive: 0.584%
23 | CCOC(=O)c1c(NC(=O)COC(=O)c2cccc([N+](=O)[O-])c2)sc(C(=O)N(C)C)c1C | active: 12.6 µM | 

Row | Structure (SMILES) | Potency | growth rescue
24 | O=C(O)c1cc(-c2ccccn2)n[nH]1 | inconclusive [activator, full curve, poor fit] | 
25 | CCOc1ccccc1-c1nc(-c2ccc(-c3ccccc3)nc2OCC)no1 |  | inactive: 1.37%
26 | COc1ccc(-c2c(C)nn3c(C)cc(C)nc23)cc1 |  | inactive: -30.8%
27 | O=S(=O)(NCc1ccco1)c1cnc(Cl)c(Br)c1 |  | inactive: -72.4%
28 | COCCNC(=S)NCCc1ccc(Cl)cc1Cl | inconclusive [activator, partial curve, poor fit] | 
29 | Cc1cccc(NC(=O)c2cc(S(=O)(=O)N(C)c3ccc(F)cc3)ccc2Cl)n1 |  | inactive: 12.9%
30 | COc1ccc2nc3c(cc2c1)c(NC(=O)c1cccs1)nn3CC(C)C |  | inactive: 7.78%
31 | O=C(NCc1ccc2c(c1)OCO2)c1ccc(N2CCCCCC2)c([N+](=O)[O-])c1 | inconclusive [activator, full curve, poor fit] | 
32 | CCOc1ccc(/C=C/C2=CC(C)(C)NC(=S)N2)cc1 | inconclusive [activator, single point] | 
33 | CCc1ccccc1NC(=O)c1cc(S(=O)(=O)N(CC)c2ccccc2)ccc1F | inconclusive [activator, full curve, poor fit] | 
34 | COC(=O)c1cn(NC(=O)c2cc(OC)cc(OC)c2)c(=O)c2ccccc12 | inconclusive [activator, partial curve, poor fit] | 
35 | O=C(NC(=S)Nc1ccccc1)c1cccs1 | inconclusive [activator, partial curve, poor fit] | 
36 | Cc1ccccc1NC(=S)NCc1ccc2[nH]c3c(c2c1)CCCC3 | inconclusive [activator, single point] | 
37 | Cc1ccc2c(ccc[n+]2CC(=O)c2ccccc2)c1 |  | inactive: 2.57%
38 | Cc1ccccc1C(=O)Nc1nnc(-c2ccc(F)cc2)o1 | active: 22.4 µM | 
39 | COC(=O)c1ccc(NC(=O)CC2C(=O)N(c3ccc(Cl)cc3)C(=O)N2Cc2cccs2)cc1 (stereo not drawn) | inconclusive [activator, partial curve] | 
40 | Cc1ccc(NC(=O)C(C)c2ccc([N+](=O)[O-])cc2)cc1Cl (stereo not drawn) | inconclusive [activator, partial curve, poor fit] | 
41 | Cc1onc(-c2c(F)cccc2Cl)c1C(=O)OCC(=O)NC(=O)NCC(C)C | inconclusive [activator, single point] | 
42 | COc1ccccc1NC(=O)CSc1nnc(C2CCCCC2)o1 | inconclusive [activator, partial curve, poor fit] | 
43 | Cc1cc(OCC(=O)N(C)Cc2ccccc2)ccc1Br | inconclusive [activator, partial curve, poor fit] | 
44 | CCOc1ccc(/C=N/NC(=S)NC2CC3C=CC2C3)cc1 (stereo not drawn) | active: 7.94 µM | 
45 | O=c1c2ccccc2nnn1Cc1cccc2ccccc12 | inconclusive [activator, single point] | 
46 | Cc1ccc(NC(=S)NC2CCSc3ccccc32)cc1C (stereo not drawn) | inconclusive [activator, partial curve, poor fit] | 

Row | Structure (SMILES) | Potency | growth rescue
47 | COc1cc(C=C2CCCC(=Cc3ccc(OCC4CO4)c(OC)c3)C2=O)ccc1OCC1CO1 (stereo not drawn) |  | inactive: 14.2%
48 | Cc1cc(=O)oc2cc(OC(=O)c3ccco3)ccc12 | inconclusive [activator, partial curve] | 
49 | CCOc1ccc(C(=O)NCC(c2ccco2)S(=O)(=O)c2ccc(C)cc2)cc1 (stereo not drawn) |  | inactive: -2.16%
50 | COc1cccc(CNC(=O)CSc2ccc(-c3sc(-c4ccccc4)nc3C)nn2)c1 |  | inactive: 2.27%
51 | Cc1ccc(NC(=O)Cn2nnnc2-c2ccccc2N)cc1 | inconclusive [activator, single point] | 
52 | CC1CCC(NC(=O)Cn2cc3c(n2)CCCC3)CC1 (stereo not drawn) | inconclusive [activator, partial curve, poor fit] | 
53 | N#Cc1c(N)[nH]c2ccc(Sc3ccccc3)cc12 |  | inactive: 1.33%
54 | CCC(C)c1ccc(NC(=S)NCc2cccs2)cc1 (stereo not drawn) |  | inactive: -9.05%
55 | CCOC(=O)c1cc(CC)sc1NC(=O)c1cc(OCC)c(OCC)c(OCC)c1 |  | inactive: -8.59%
56 | CCCOc1ccc(C(=O)NC(=S)NNC(=O)c2c(-c3ccccc3)noc2C)cc1 | inconclusive [activator, partial curve, poor fit] | 
57 | CCn1cc(C(=O)O)c(=O)c2ccc(C)nc21 | inconclusive [activator, full curve, poor fit] | 
58 | O=C(Nc1cc(C(F)(F)F)ccc1Cl)C(Sc1nnc(-c2cccs2)o1)c1ccccc1 (stereo not drawn) | inconclusive [activator, partial curve, poor fit] | 
59 | COc1ccc(/C=N/NC(=O)c2ccoc2C)cc1COc1ccc(Cl)cc1 | inconclusive [activator, single point] | 
60 | CCCCOCCCNC(=O)C[C@@H]1C[C@@]2(C(=O)OC)CCCCC=C2N(Cc2ccc(Cl)cc2Cl)C1=O | inconclusive [activator, partial curve, poor fit] | 
61 | Cc1ccc(CC(=O)Nc2nc3c(s2)CCCC3)cc1 | inconclusive [activator, partial curve, poor fit] | 
62 | CCCCC12CN3CC(C)(CN(C1)C3c1cc(Br)ccc1O)C2=O (stereo not drawn) | inconclusive [activator, single point] | 
63 | COc1cccc(CN2C(=O)CCC2(C)C(=O)NC2CCCCCC2)c1 (stereo not drawn) | inconclusive [activator, partial curve, poor fit] | 
64 | COc1cc(NC(C)=O)c2ncccc2c1NC(C)=O |  | inactive: 3.51%
65 | COc1ccc(CCNC(=O)NC(C(F)(F)F)C(F)(F)F)cc1OC |  | inactive: 3.79%
66 | CC(C)(C)NC(=O)c1ccccc1NC(=O)c1ccc2c(c1)OCO2 | inconclusive [activator, single point] | 
67 | c1ccc(C(NCCNC(c2ccccc2)c2ccccc2)c2ccccc2)cc1 |  | inactive: 18.5%
68 | COc1cccc(NC(=O)N2CCN(c3cccc(C)c3)C(C)C2)c1 (stereo not drawn) | inconclusive [activator, partial curve, poor fit] | 
